Assay results as given in publication PMC5450233.
Results are given in words; binding and its absence hold for the method and conditions named. In cells and extracts the contact can be indirect. Some entries that bind do so weakly or less than the wild type. Sequences can lack the tags named with a protein.

The chains behind the UniProt entries cited, without tags or fusion partners. Residues count along the entry.
UniProt P56536, residues 815-955: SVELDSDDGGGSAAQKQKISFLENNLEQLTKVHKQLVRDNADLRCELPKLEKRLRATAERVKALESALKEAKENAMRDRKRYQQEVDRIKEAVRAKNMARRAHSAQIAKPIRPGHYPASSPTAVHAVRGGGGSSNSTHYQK
UniProt P33176, residues 814-963: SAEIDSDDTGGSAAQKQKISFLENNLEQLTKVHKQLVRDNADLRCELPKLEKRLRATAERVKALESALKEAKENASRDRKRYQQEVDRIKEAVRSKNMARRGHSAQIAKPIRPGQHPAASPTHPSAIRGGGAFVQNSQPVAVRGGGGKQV

B1: GFP–SKIP(1-310) (domain or fragment, UniProt Q8IWE5 1-310)
chain: MEPGEVKDRILENISLSVKKLQSYFAACEDEIPAIRNHDKVLQRLCEHLDHALLYGLQDLSSGYWVLVVHFTRREAIKQIEVLQHVATNLGRSRAWLYLALNENSLESYLRLFQENLGLLHKYYVKNALVCSHDHLTLFLTLVSGLEFIRFELDLDAPYLDLAPYMPDYYKPQYLLDFEDRLPSSVHGSDSLSLNSFNSVTSTNLEWDDSAIAPSSEDYDFGDVFPAVPSVPSTDWEDGDLTDTVSGPRSTASDLTSSKASTRSPTQRQNPFNEEPAETVSSSDTTPVHTTSQEKEEAQALDPPDACTEL
B2: GFP–SKIP(1-260) (domain or fragment, UniProt Q8IWE5 1-260)
chain: MEPGEVKDRILENISLSVKKLQSYFAACEDEIPAIRNHDKVLQRLCEHLDHALLYGLQDLSSGYWVLVVHFTRREAIKQIEVLQHVATNLGRSRAWLYLALNENSLESYLRLFQENLGLLHKYYVKNALVCSHDHLTLFLTLVSGLEFIRFELDLDAPYLDLAPYMPDYYKPQYLLDFEDRLPSSVHGSDSLSLNSFNSVTSTNLEWDDSAIAPSSEDYDFGDVFPAVPSVPSTDWEDGDLTDTVSGPRSTASDLTSSKA
B3: GFP–SKIP(1-243) (domain or fragment, UniProt Q8IWE5 1-243)
chain: MEPGEVKDRILENISLSVKKLQSYFAACEDEIPAIRNHDKVLQRLCEHLDHALLYGLQDLSSGYWVLVVHFTRREAIKQIEVLQHVATNLGRSRAWLYLALNENSLESYLRLFQENLGLLHKYYVKNALVCSHDHLTLFLTLVSGLEFIRFELDLDAPYLDLAPYMPDYYKPQYLLDFEDRLPSSVHGSDSLSLNSFNSVTSTNLEWDDSAIAPSSEDYDFGDVFPAVPSVPSTDWEDGDLTD
B4: GFP–SKIP(1-310) ΔEx7 (domain or fragment, UniProt Q8IWE5)
chain: MEPGEVKDRILENISLSVKKLQSYFAACEDEIPAIRNHDKVLQRLCEHLDHALLYGLQDLSSGYWVLVVHFTRREAIKQIEVLQHVATNLGRSRAWLYLALNENSLESYLRLFQENLGLLHKYYVKNALVCSHDHLTLFLTLVSGLEFIRFELDLDAPYLDLAPYMPDYYKPQYLLDFEDRLPSSVHGSDSLSLNSFNSVTSTNLEWDDSAIAPSSEDGDLTDTVSGPRSTASDLTSSKASTRSPTQRQNPFNEEPAETVSSSDTTPVHTTSQEKEEAQALDPPDACTEL
B5: GFP–CSTN1–SKIP(short) (protein, UniProt O94985 881-981; Q8IWE5 215-241)
chain: RIRAAHRRTMRDQDTGKENEMDWDDSALTITVNPMETYEDQHSSEEEEEEEEEEESEDGEEEDDITSAESESSEEEEGEQGDPQNATRQQQLEWDDSTLSYSSEDYDFGDVFPAVPSVPSTDWEDGDL
B6: GFP–CSTN1–SKIP(long) (protein, UniProt O94985 881-981; Q8IWE5 215-260)
chain: RIRAAHRRTMRDQDTGKENEMDWDDSALTITVNPMETYEDQHSSEEEEEEEEEEESEDGEEEDDITSAESESSEEEEGEQGDPQNATRQQQLEWDDSTLSYSSEDYDFGDVFPAVPSVPSTDWEDGDLTDTVSGPRSTASDLTSSKA
B7: GFP–SKIP(1-216) (domain or fragment, UniProt Q8IWE5 1-216)
chain: MEPGEVKDRILENISLSVKKLQSYFAACEDEIPAIRNHDKVLQRLCEHLDHALLYGLQDLSSGYWVLVVHFTRREAIKQIEVLQHVATNLGRSRAWLYLALNENSLESYLRLFQENLGLLHKYYVKNALVCSHDHLTLFLTLVSGLEFIRFELDLDAPYLDLAPYMPDYYKPQYLLDFEDRLPSSVHGSDSLSLNSFNSVTSTNLEWDDSAIAPSS

biological target: GST–KHC(815-955) (rat) (UniProt P56536); experiment: pull-down; competition: GST–KHC(815-955) pulldown of GFP–SKIP(1-310) from 293T cell extract to which purified recombinant KLC2^TPR was added at increasing concentrations; the blocked pair; only the target purified

| Binder | binding |
| --- | --- |
| B1 | binds |

biological target: GST–KHC(815-955) (rat) (UniProt P56536); experiment: pull-down; GST–KHC tail fusion (0.25 nmol) on glutathione–Sepharose beads incubated 1.5 h with 293T cell extract expressing GFP fusion proteins; 25 mM HEPES pH 7.5, 150 mM NaCl, 0.1% NP-40, Triton X-100; western blot; only the target purified

| Binder | binding |
| --- | --- |
| B1 | binds |
| B2 | binds |
| B3 | binds |
| B4 | binds |
| B5 | binds |
| B6 | binds |
| B7 | no binding |

biological target: GST–Kif5B C-terminal tail fragment (814–963) (human) (UniProt P33176); experiment: as above

| Binder | binding |
| --- | --- |
| B1 | binds |
